Here are results for 43 molecules from PubChem BioAssay AID1346428 (National Center for Advancing Translational Sciences (NCATS), 2018).

Screen size: about 48,000 compounds; about 1,200 (2.5%) were called active. About 2% were inconclusive and are not listed.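 How the source made its calls: active means activation of at least 60% and not above a set upper limit (about 1 call in 100 departs from these limits); inconclusive means activation of 40% to 60%, or above that upper limit; inactive means activation under 40%.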 Some of the results follow.

UniProt O75388, sequence (O75388 whole entry, looked up): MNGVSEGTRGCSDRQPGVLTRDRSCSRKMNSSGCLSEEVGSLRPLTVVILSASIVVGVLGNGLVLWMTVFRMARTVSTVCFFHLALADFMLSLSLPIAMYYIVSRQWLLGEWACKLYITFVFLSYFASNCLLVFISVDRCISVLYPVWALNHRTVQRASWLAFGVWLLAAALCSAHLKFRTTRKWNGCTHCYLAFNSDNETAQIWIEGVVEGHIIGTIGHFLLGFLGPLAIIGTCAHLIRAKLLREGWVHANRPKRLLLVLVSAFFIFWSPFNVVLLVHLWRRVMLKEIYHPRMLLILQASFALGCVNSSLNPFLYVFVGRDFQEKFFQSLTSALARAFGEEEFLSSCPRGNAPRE

In this test the target is Probable G-protein coupled receptor 32 (Homo sapiens) (UniProt O75388). The test can be described thus: qHTS for Agonists of Human Resolvin D1 Receptor DRV1. The note with it: CHO-K1 GPR32 beta-arrestin PathHunter luminescence, 90 min; at 76.9 µM; stronger effect = higher value; zero percent set by DMSO-only wells. An excerpt:
Endogenous resolution of inflammation is known to be transduced through various GPCRs and their natural mediators of lipid nature. Resolvin D1 (RvD1) is one of the active players in resolution of acute inflammation through regulation of anti-inflammatory pathways; it is known to enhance phagocytosis of human macrophages, limits neutrophils infiltration, etc. […] The search for GPR32-activating small molecules with anti-inflammatory effects similar to its natural omega-3 derivative ligand in order to use them as research tools for further studies of inflammation and its resolution was the goal of this screening project. For primary screening assay, we used CHO-K1 GPR32 beta-arrestin cell line (DiscoveRx, #93-0321C2A) and the PathHunter(R) beta-Arrestin Assay (DiscoveRx) which measures recruitment of beta-arrestin to the GPR32 and generates chemiluminescent signal. These engineered cells stably transfected with GPR32 co-express GPR32-fused small 42-amino acid fragment of beta-Gal called ProLinktrade mark, and […] -tagged beta-Arrestin fusion protein. When GPR32 is activated by a ligand, it stimulates binding of beta -Arrestin to ProLink-tagged GPR32, and two parts of beta-Gal complement forming a functional enzyme. Upon substrate (PathHunter(R) Detection reagent) addition, beta-Gal hydrolyzes it and generates a chemiluminescent signal.
The cells were thawed and plated in thawing media containing F-12 HAM (Invitrogen, #11765-054), 10% FBS (Invitrogen, #10082), 1x Glutamine, and 1x Pen/Strep onto the 175-mm flask for 24 hours. Then, thawing media was replaced with Growth media which contains 800microg/mL Geneticin (Invitrogen, #10131) and 300microg/mL Hygromycin B (Invitrogen, #10687) in addition to described above. For the assay, the cells were harvested at ~80% confluent stage with Cell Dissociation buffer (Gibco, #13151), and seeded at 2,500 cells/ 3microL/well in assay media (PathHunter(R) Cell Plating Reagent, DiscoverX, #93-0563R1B) using MultiDrop Combi dispenser (Thermo Scientific, Logan, UT) onto white solid bottom tissue culture-treated 1536-well plates (Greiner # 789173-F) and allowed to attach overnight at 37 degrees C, 95% humidity, 5% CO2, . Next, 23nL/well of compound solutions in DMSO were added with a Pin Tool (Kalypsis, San Diego, CA) to the assay plates. As the basal control (EC0), 23 nL/well of DMSO was used on each plate. The cells were incubated in the presence of compounds or DMSO for 90 minutes at 37 degrees C, 5% CO2. Subsequently, 1.5microL/well of PathHunter(R) Detection Reagent prepared per the manufacturer's instructions was added to the assay plates with BioRAPTR FRDtrade mark dispenser (Beckman Coulter, San Francisco, CA) and incubated for 1 hour at ambient temperature prior to the measurement of the luminescent signal on ViewLux(R) uHTS Microplate Imager (Perkin Elmer, Waltham, MA).
(Quantitative high-throughput screening tests each substance at several concentrations.)
On to `CC(C)C12CN3CC(C(C)C)(CN(C1)C3c1ccc(Cl)cc1)C2=O` (stereo not drawn), for which the activation was inactive: 13.5%. As to `O=C(Nc1ccccc1)c1cc([N+](=O)[O-])ccc1Cl`, the activation was inactive: -1.17%. Consider `COc1ccc(NC(=O)Cn2cnc3sc(C)c(S(=O)(=O)N4CCN(C)CC4)c3c2=O)cc1Cl`, for which the activation is inactive: 3.74%. With `CCCSc1ncc(Cl)c(C(=O)N(Cc2ccc(N(C)C)cc2)C2CCS(=O)(=O)C2)n1` (stereo not drawn) the figure was inactive: -34.1%; with `CCOC(=O)c1ccc(N2C(=O)c3n[nH]c(C)c3C2c2ccc(C(C)(C)C)cc2)cc1` (stereo not drawn), inactive: 10.9%; with `CNC(=O)C1CCC(Cn2c(=O)[nH]c3ccsc3c2=O)CC1` (stereo not drawn), inactive: 1.08%. Turning to `CCOC(=O)CNC(=O)N1CCc2cc(S(=O)(=O)N3CCC(C)CC3)ccc21`, the activation was inactive: -7.73%. With `CC(C)(C)OC(=O)N1CCC(c2c(C(=O)N3CCN(c4ncccn4)CC3)cnn2-c2ccccc2)CC1` the figure was inactive: -7.07%; with `Cc1ccccc1-n1c(/C=C/c2c(C)n(C)c3ccccc23)nc2ccccc2c1=O`, inactive: -6.53%. For `Cc1cccc(OC(=O)c2cc(-c3ccc4c(c3)OCCO4)on2)c1` the value was inactive: -0.332%; for `CSc1ccc(CNc2ncc(-c3ccccc3)n2C)cc1`, inactive: -52.2%.

For the molecule `CCOC(=O)c1cccc(NC(=O)c2cc(CN3CCOCC3)on2)c1`, the activation was inactive: -2.64%.

With `CCOC(=O)c1ccc(NC(=O)COCc2cc(-c3ccc4c(c3)OCO4)on2)cc1`, the activation was inactive: -5.37%. For `CCN(CC)S(=O)(=O)c1ccc(C(=O)Nc2nc3c(Cl)cc(Cl)cc3s2)cc1` the value was inactive: -8.47%. Consider `Cc1ccccc1C(=O)NCc1nc2cccnc2n1Cc1ccccc1`, for which the activation is inactive: -19.5%.

For the molecule `COc1cccc(CNC(=O)c2nn(-c3ccccc3Cl)nc2CO)c1`, the activation was inactive: -15.6%. `CC(C(=O)Nc1cc(C(F)(F)F)ccc1Cl)n1nnc2sc3c(c2c1=O)CCCC3` (stereo not drawn): the activation is inactive: -2.52%. With `Cc1ccc2oc(-c3ccc(C)c(NC(=O)c4ccc(C(C)(C)C)cc4)c3)nc2c1` the figure was inactive: 7.05%; with `CCOc1ccccc1C(=O)Oc1c(Sc2ccccc2)c(C)nn1C(C)(C)C`, inactive: -3.26%; with `Cc1ccc(-c2csc(=Nc3ccccc3)n2Cc2ccc3c(c2)OCO3)cc1C`, inactive: 13.8%.

Turning to `CCN1CCN(C(c2ccccc2)c2sc3nc(-c4ccco4)nn3c2O)CC1` (stereo not drawn), the activation was inactive: -6.93%. With `COc1ccc(S(=O)(=O)c2c(Nc3ccc(F)cc3)sc(C(=O)c3ccc4c(c3)OCO4)c2N)cc1` the figure was inactive: -12.1%; with `C[N+]1(CCCCC[N+]2(C)CCCC2)CCCC1`, inactive: 0.996%. For `COc1ccc(N2CCN(C(=O)c3ccc4c(c3)N(Cc3ccc(F)cc3)C(=O)c3ccccc3S4=O)CC2)cc1` (stereo not drawn) the value was inactive: -11.2%; for `COc1ccccc1C(=O)n1nc(-c2ccco2)nc1NCc1ccc(Cl)cc1`, inactive: -31.7%. Turning to `COc1ccccc1NC(=O)c1c(NCc2ccc(C)o2)sc2c1CCC(C)C2` (stereo not drawn), the activation was inactive: -4.19%.

As for `COCCc1nn2c(=O)cc(COC(=O)COc3ccc(F)cc3)nc2s1`, the activation was inactive: -1.8%. For `COc1ccc(-c2cn3c(n2)sc2cc(C(=O)NCCCN4CCCCCC4)ccc23)cc1` the value was inactive: -13.4%; for `CCCOC(=O)c1c(NC(=O)C2c3ccccc3Oc3ccccc32)sc2c1CCC(C)C2` (stereo not drawn), inactive: 9.99%.

Consider `Cc1ccccc1-c1nc2cc(NC(=O)c3cccc(OCCC(C)C)c3)ccc2o1`, for which the activation was inactive: 12%. Take `CCC12CN3CC(C)(CN(C1)C3c1ccccc1C)C2=O` (stereo not drawn): the activation was inactive: -3.78%.

With `COc1ccc2c(c1)c1c(c(=O)n(-c3ccc(C)cc3)c(=O)n1CC(=O)N1CCCC1)n2C`, the activation was inactive: -30.5%.

As for `CCOc1ccc(-n2ccn3c(CC(C)CC(=O)O)nnc3c2=O)cc1` (stereo not drawn), the activation was inactive: 14.8%. With `COc1cc(NC(=O)c2ccc(-c3nc(COc4ccccc4)c(C)o3)cc2)cc(OC)c1` the figure was inactive: -17.4%; with `CCCCN(Cc1ccccc1)S(=O)(=O)c1cc(Br)cc2c1N(C(=O)C1CC1)CC2`, inactive: -3.4%; with `CCOC(=O)N1CCC(NC(=O)c2ccc3c(c2)N(Cc2ccccc2)C(=O)c2ccccc2S3=O)CC1` (stereo not drawn), inactive: -7.99%. For `CC(=O)C1=C(c2ccc(Cl)c(Cl)c2)N(C(C)=O)n2c(nnc2C2CCCCC2)S1` the value was inactive: -15.8%; for `O=C(CCc1nnc2n(Cc3ccccc3Cl)c(=O)c3ccccc3n12)Nc1ccc(F)cc1`, inactive: -8.29%. On to `CCCNC(=O)CCn1nc(-c2ccccc2)c2ccccc2c1=O`, for which the activation is inactive: -22.9%.

As for `O=C(CSc1nnc(CNC(=O)c2ccccc2F)n1-c1ccccc1)Nc1ccccc1F`, the activation was inactive: -8.61%.

On to `CCOc1ccc(OCC)c(NC(=O)c2cc(CN3CCOCC3)on2)c1`, for which the activation is inactive: -6.43%. Take `CCC(Cn1nnc2ccccc2c1=O)NC(=O)Nc1ccc(C)cc1` (stereo not drawn): the activation is inactive: -21%.

Consider `Cc1ccc(S(=O)(=O)c2cnc(SC(C)C(=O)Nc3ccccc3)[nH]c2=O)cc1` (stereo not drawn), for which the activation is inactive: -13.9%.
